# Reference: the supplement of paper PMC8728848
# The other results are listed elsewhere or left out.
# B1: CBM13 2a (Mycobacterium tuberculosum), P64849 (protein)
# chain: DGPVQLKSRLGDVCLDAPSGSWFSPLVINPCNGTDFQRWNLTDDRQVESVAFPGECVNIGNALWARLQPCVNWISQHWTVQPDGLVKSDLDACLTVLGGPDPGTWVSTRWCDPNAPDQQWDSVPLEHHHHHH
# Key:
# Assay in all cases: glycan array binding signal (z-score within array); higher = stronger binding
# Conditions in all cases: glycan notation: IUPAC condensed, linker removed
# [1] = biological target: Gal(b1-3)GlcNAc6S
# Outline: (§1)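 The Consortium for Functional Glycomics database supplied 3228 glycan arrays, of which those lacking an available protein sequence were dropped. The binding signal, a within-array Z-score, was averaged across arrays of the same protein sequence and across linkers. Negative scores can be read as non-binding.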
# [2] = biological target: Gal(b1-3)[Fuc(a1-4)]GlcNAc
# Outline: as §1
# [3] = biological target: Gal(b1-3)[Fuc(a1-4)]GlcNAc(b1-2)Man
# Outline: as §1
# [4] = biological target: Gal(b1-3)[Fuc(a1-4)]GlcNAc(b1-2)Man(a1-3)[Gal(b1-3)[Fuc(a1-4)]GlcNAc(b1-2)Man(a1-6)]Man(b1-4)GlcNAc(b1-4)[Fuc(a1-6)]GlcNAc
# Outline: as §1
# [5] = biological target: Gal(b1-3)[Fuc(a1-4)]GlcNAc(b1-3)Gal(b1-3)[Fuc(a1-4)]GlcNAc
# Outline: as §1
# [6] = biological target: Gal(b1-3)[Fuc(a1-4)]GlcNAc(b1-3)Gal(b1-4)GlcNAc
# Outline: as §1
# [7] = biological target: Gal(b1-3)[Fuc(a1-4)]GlcNAc(b1-3)Gal(b1-4)[Fuc(a1-3)]GlcNAc
# Outline: as §1
# [8] = biological target: Gal(b1-3)[Fuc(a1-4)]GlcNAc(b1-6)GalNAc
# Outline: as §1
# [9] = biological target: Gal(b1-3)[GlcNAc(b1-6)]GalNAc
# Outline: as §1
# [10] = biological target: Gal(b1-3)[Neu5Ac(a2-6)]GalNAc
# Outline: as §1
# [11] = biological target: Gal(b1-3)[Neu5Ac(a2-6)]GlcNAc(b1-4)Gal(b1-4)Glc
# Outline: as §1
# [12] = biological target: Gal(b1-3)[Neu5Ac(b2-6)]GalNAc
# Outline: as §1
# [13] = biological target: Gal(b1-4)Gal
# Outline: as §1
# [14] = biological target: Gal(b1-4)GalNAc(a1-3)[Fuc(a1-2)]Gal(b1-4)GlcNAc
# Outline: as §1
# [15] = biological target: Gal(b1-4)GalNAc(b1-3)[Fuc(a1-2)]Gal(b1-4)GlcNAc
# Outline: as §1
# [16] = biological target: Gal(b1-4)Glc
# Outline: as §1
# [17] = biological target: Gal(b1-4)Glc6S
# Outline: as §1
# [18] = biological target: Gal(b1-4)GlcNAc
# Outline: as §1
# [19] = biological target: Gal(b1-4)GlcNAc(a1-6)Gal(b1-4)GlcNAc
# Outline: as §1
# [20] = biological target: Gal(b1-4)GlcNAc(b1-2)Man
# Outline: as §1
# [21] = biological target: Gal(b1-4)GlcNAc(b1-2)Man(a1-3)Man(b1-4)GlcNAc(b1-4)GlcNAc
# Outline: as §1
# [22] = biological target: Gal(b1-4)GlcNAc(b1-2)Man(a1-3)[Gal(b1-4)GlcNAc(b1-2)Man(a1-6)]Man(b1-4)GlcNAc(b1-4)GlcNAc
# Outline: as §1
# [23] = biological target: Gal(b1-4)GlcNAc(b1-2)Man(a1-3)[Gal(b1-4)GlcNAc(b1-2)Man(a1-6)]Man(b1-4)GlcNAc(b1-4)[Fuc(a1-6)]GlcNAc
# Outline: as §1
# [24] = biological target: Gal(b1-4)GlcNAc(b1-2)Man(a1-3)[Gal(b1-4)GlcNAc(b1-2)Man(a1-6)][Gal(b1-4)GlcNAc(b1-4)]Man(b1-4)GlcNAc(b1-4)[Fuc(a1-6)]GlcNAc
# Outline: as §1
# [25] = biological target: Gal(b1-4)GlcNAc(b1-2)Man(a1-3)[Gal(b1-4)GlcNAc(b1-2)Man(a1-6)][GlcNAc(b1-4)]Man(b1-4)GlcNAc(b1-4)[Fuc(a1-6)]GlcNAc
# Outline: as §1
# [26] = biological target: Gal(b1-4)GlcNAc(b1-2)Man(a1-3)[GlcNAc(b1-2)Man(a1-6)]Man(b1-4)GlcNAc(b1-4)GlcNAc
# Outline: as §1
# [27] = biological target: Gal(b1-4)GlcNAc(b1-2)Man(a1-3)[GlcNAc(b1-4)][Gal(b1-4)GlcNAc(b1-2)Man(a1-6)]Man(b1-4)GlcNAc(b1-4)GlcNAc
# Outline: as §1
# [28] = biological target: Gal(b1-4)GlcNAc(b1-2)Man(a1-3)[Man(a1-6)]Man(b1-4)GlcNAc(b1-4)GlcNAc
# Outline: as §1
# [29] = biological target: Gal(b1-4)GlcNAc(b1-2)Man(a1-6)Man(b1-4)GlcNAc(b1-4)GlcNAc
# Outline: as §1
# [30] = biological target: Gal(b1-4)GlcNAc(b1-2)Man(a1-6)[GlcNAc(b1-2)Man(a1-3)]Man(b1-4)GlcNAc(b1-4)GlcNAc
# Outline: as §1
# [31] = biological target: Gal(b1-4)GlcNAc(b1-2)Man(a1-6)[Man(a1-3)]Man(b1-4)GlcNAc(b1-4)GlcNAc
# Outline: as §1
# [32] = biological target: Gal(b1-4)GlcNAc(b1-2)[Gal(b1-4)GlcNAc(b1-4)]Man(a1-3)[Gal(b1-4)GlcNAc(b1-2)Man(a1-6)]Man(b1-4)GlcNAc(b1-4)GlcNAc
# Outline: as §1
# [33] = biological target: Gal(b1-4)GlcNAc(b1-2)[Gal(b1-4)GlcNAc(b1-4)]Man(a1-3)[Gal(b1-4)GlcNAc(b1-2)[Gal(b1-4)GlcNAc(b1-6)]Man(a1-6)]Man(b1-4)GlcNAc(b1-4)GlcNAc
# Outline: as §1
# [34] = biological target: Gal(b1-4)GlcNAc(b1-2)[Gal(b1-4)GlcNAc(b1-4)]Man(a1-3)[GlcNAc(b1-4)][Gal(b1-4)GlcNAc(b1-2)Man(a1-6)]Man(b1-4)GlcNAc(b1-4)GlcNAc
# Outline: as §1
# [35] = biological target: Gal(b1-4)GlcNAc(b1-2)[Gal(b1-4)GlcNAc(b1-4)]Man(a1-3)[GlcNAc(b1-4)][Gal(b1-4)GlcNAc(b1-2)[Gal(b1-4)GlcNAc(b1-6)]Man(a1-6)]Man(b1-4)GlcNAc(b1-4)GlcNAc
# Outline: as §1
# [36] = biological target: Gal(b1-4)GlcNAc(b1-2)[Gal(b1-4)GlcNAc(b1-6)]Man(a1-6)[Gal(b1-4)GlcNAc(b1-2)Man(a1-3)]Man(b1-4)GlcNAc(b1-4)GlcNAc
# Outline: as §1
# [37] = biological target: Gal(b1-4)GlcNAc(b1-2)[Gal(b1-4)GlcNAc(b1-6)]Man(a1-6)[Gal(b1-4)GlcNAc(b1-2)Man(a1-3)]Man(b1-4)GlcNAc(b1-4)[Fuc(a1-6)]GlcNAc
# Outline: as §1
# [38] = biological target: Gal(b1-4)GlcNAc(b1-2)[Gal(b1-4)GlcNAc(b1-6)]Man(a1-6)[GlcNAc(b1-4)][Gal(b1-4)GlcNAc(b1-2)Man(a1-3)]Man(b1-4)GlcNAc(b1-4)GlcNAc
# Outline: as §1
# [39] = biological target: Gal(b1-4)GlcNAc(b1-2)[Gal(b1-4)GlcNAc(b1-6)]Man(a1-6)[GlcNAc(b1-4)][Gal(b1-4)GlcNAc(b1-2)[Gal(b1-4)GlcNAc(b1-4)]Man(a1-3)]Man(b1-4)GlcNAc(b1-4)[Fuc(a1-6)]GlcNAc
# Outline: as §1
# [40] = biological target: Gal(b1-4)GlcNAc(b1-3)Gal(b1-3)GalNAc
# Outline: as §1
# [41] = biological target: Gal(b1-4)GlcNAc(b1-3)Gal(b1-3)GlcNAc
# Outline: as §1
# [42] = biological target: Gal(b1-4)GlcNAc(b1-3)Gal(b1-4)Glc
# Outline: as §1
# [43] = biological target: Gal(b1-4)GlcNAc(b1-3)Gal(b1-4)GlcNAc
# Outline: as §1
# [44] = biological target: Gal(b1-4)GlcNAc(b1-3)Gal(b1-4)GlcNAc(b1-2)Man(a1-3)[Gal(b1-4)GlcNAc(b1-3)Gal(b1-4)GlcNAc(b1-2)Man(a1-6)]Man(b1-4)GlcNAc(b1-4)GlcNAc
# Outline: as §1
# [45] = biological target: Gal(b1-4)GlcNAc(b1-3)Gal(b1-4)GlcNAc(b1-2)Man(a1-3)[Gal(b1-4)GlcNAc(b1-3)Gal(b1-4)GlcNAc(b1-2)Man(a1-6)]Man(b1-4)GlcNAc(b1-4)[Fuc(a1-6)]GlcNAc
# Outline: as §1
binder,measurement,setting,value
B1,glycan array binding signal (z-score),[1],-0.059
same,glycan array binding signal (z-score),[2],-0.163
same,glycan array binding signal (z-score),[3],0.42
same,glycan array binding signal (z-score),[4],0.154
same,glycan array binding signal (z-score),[5],-0.136
same,glycan array binding signal (z-score),[6],-0.309
same,glycan array binding signal (z-score),[7],-0.184
same,glycan array binding signal (z-score),[8],-0.141
same,glycan array binding signal (z-score),[9],-0.225
same,glycan array binding signal (z-score),[10],-0.099
same,glycan array binding signal (z-score),[11],-0.184
same,glycan array binding signal (z-score),[12],-0.216
same,glycan array binding signal (z-score),[13],-0.172
same,glycan array binding signal (z-score),[14],-0.351
same,glycan array binding signal (z-score),[15],-0.335
same,glycan array binding signal (z-score),[16],-0.146
same,glycan array binding signal (z-score),[17],-0.217
same,glycan array binding signal (z-score),[18],-0.286
same,glycan array binding signal (z-score),[19],-0.249
same,glycan array binding signal (z-score),[20],-0.147
same,glycan array binding signal (z-score),[21],-0.247
same,glycan array binding signal (z-score),[22],-0.247
same,glycan array binding signal (z-score),[23],0.207
same,glycan array binding signal (z-score),[24],-0.386
same,glycan array binding signal (z-score),[25],-0.294
same,glycan array binding signal (z-score),[26],-0.22
same,glycan array binding signal (z-score),[27],-0.18
same,glycan array binding signal (z-score),[28],-0.271
same,glycan array binding signal (z-score),[29],-0.216
same,glycan array binding signal (z-score),[30],-0.286
same,glycan array binding signal (z-score),[31],-0.262
same,glycan array binding signal (z-score),[32],-0.249
same,glycan array binding signal (z-score),[33],-0.26
same,glycan array binding signal (z-score),[34],-0.229
same,glycan array binding signal (z-score),[35],-0.194
same,glycan array binding signal (z-score),[36],0.02
same,glycan array binding signal (z-score),[37],-0.203
same,glycan array binding signal (z-score),[38],-0.182
same,glycan array binding signal (z-score),[39],-0.113
same,glycan array binding signal (z-score),[40],-0.207
same,glycan array binding signal (z-score),[41],-0.187
same,glycan array binding signal (z-score),[42],-0.2
same,glycan array binding signal (z-score),[43],-0.072
same,glycan array binding signal (z-score),[44],3.82
same,glycan array binding signal (z-score),[45],0.067
